According to paper PMC12820563:
The other results are listed elsewhere or left out. The list includes weakly bound sequences.

molecular target: T1, MBP-FoxP3dN (UniProt Q99JB6); assay: PD-seq (MBP pull-down with sequencing); settings: 20 mM Tris-HCl pH 7.5, 100 mM NaCl, 1.5 mM MgCl2, 0.4 uM protein, 0.1 uM dsDNA library, 30 min, room temperature, amylose pull-down; high values mean tight binding; double strand, one strand shown
T1 sequence: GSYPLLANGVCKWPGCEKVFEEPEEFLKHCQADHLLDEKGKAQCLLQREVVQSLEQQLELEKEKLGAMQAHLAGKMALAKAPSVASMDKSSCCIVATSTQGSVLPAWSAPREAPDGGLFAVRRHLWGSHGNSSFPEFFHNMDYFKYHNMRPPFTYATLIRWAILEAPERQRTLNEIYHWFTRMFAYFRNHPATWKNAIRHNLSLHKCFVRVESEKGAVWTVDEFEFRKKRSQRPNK

| Sequence | binding signal (RPM ratio (pull-down/input)) |
| --- | --- |
| GATGATTGTTCTCCCAGCTGATGAATTCAATACCTCGAGTAAACAAATTTTCCTAATCTTTCTGTTCAAGCGCCATCTAC | 0.429 |
| GATGATTGTTCTCCCAGCTGATGAATTTGTGCGTTCGAGTAAACAAATTTTCCTAATCTTTCTGTTCAAGCGCCATCTAC | 3.7 |
| GATGATTGTTCTCCCAGCTGATGAATTACTGGCGTCGAGTAAACAAATTTTCCTAATCTTTCTGTTCAAGCGCCATCTAC | 0.476 |
| GATGATTGTTCTCCCAGCTGATGAATTGCCCTACTCGAGTAAACAAATTTTCCTAATCTTTCTGTTCAAGCGCCATCTAC | 0.438 |
| GATGATTGTTCTCCCAGCTGATGAATTTCAAGTTTCGAGTAAACAAATTTTCCTAATCTTTCTGTTCAAGCGCCATCTAC | 0.283 |
| GATGATTGTTCTCCCAGCTGATGAATTCAAATGCTCGAGTAAACAAATTTTCCTAATCTTTCTGTTCAAGCGCCATCTAC | 0.736 |
| GATGATTGTTCTCCCAGCTGATGAATTAGCCCTATCGAGTAAACAAATTTTCCTAATCTTTCTGTTCAAGCGCCATCTAC | 0.35 |
| GATGATTGTTCTCCCAGCTGATGAATTAAGTTCATCGAGTAAACAAATTTTCCTAATCTTTCTGTTCAAGCGCCATCTAC | 0.538 |
| GATGATTGTTCTCCCAGCTGATGAATTTGGCATGTCGAGTAAACAAATTTTCCTAATCTTTCTGTTCAAGCGCCATCTAC | 4.91 |
| GATGATTGTTCTCCCAGCTGATGAATTATTTGTGTCGAGTAAACAAATTTTCCTAATCTTTCTGTTCAAGCGCCATCTAC | 2.76 |
| GATGATTGTTCTCCCAGCTGATGAATTGCGCTGTTCGAGTAAACAAATTTTCCTAATCTTTCTGTTCAAGCGCCATCTAC | 1.63 |
| GATGATTGTTCTCCCAGCTGATGAATTTATTCGATCGAGTAAACAAATTTTCCTAATCTTTCTGTTCAAGCGCCATCTAC | 0.329 |
| GATGATTGTTCTCCCAGCTGATGAATTCGGATACTCGAGTAAACAAATTTTCCTAATCTTTCTGTTCAAGCGCCATCTAC | 0.758 |
| GATGATTGTTCTCCCAGCTGATGAATTGGGAGTATCGAGTAAACAAATTTTCCTAATCTTTCTGTTCAAGCGCCATCTAC | 0.577 |
| GATGATTGTTCTCCCAGCTGATGAATTACAGATGTCGAGTAAACAAATTTTCCTAATCTTTCTGTTCAAGCGCCATCTAC | 0.512 |
| GATGATTGTTCTCCCAGCTGATGAATTACTGCCATCGAGTAAACAAATTTTCCTAATCTTTCTGTTCAAGCGCCATCTAC | 1.87 |
| GATGATTGTTCTCCCAGCTGATGAATTTCTCTTCTCGAGTAAACAAATTTTCCTAATCTTTCTGTTCAAGCGCCATCTAC | 0.263 |
| GATGATTGTTCTCCCAGCTGATGAATTTAAATCGTCGAGTAAACAAATTTTCCTAATCTTTCTGTTCAAGCGCCATCTAC | 0.398 |
| GATGATTGTTCTCCCAGCTGATGAATTAGTGGTTTCGAGTAAACAAATTTTCCTAATCTTTCTGTTCAAGCGCCATCTAC | 2.35 |
| GATGATTGTTCTCCCAGCTGATGAATTGCTTTGCTCGAGTAAACAAATTTTCCTAATCTTTCTGTTCAAGCGCCATCTAC | 1.22 |
| GATGATTGTTCTCCCAGCTGATGAATTACCACGGTCGAGTAAACAAATTTTCCTAATCTTTCTGTTCAAGCGCCATCTAC | 0.257 |

| Sequence | binding signal (RPM ratio (pull-down/input)) |
| --- | --- |
| GATGATTGTTCTCCCAGCTGATGAATTCCGTACCTCGAGTAAACAAATTTTCCTAATCTTTCTGTTCAAGCGCCATCTAC | 0.892 |
| GATGATTGTTCTCCCAGCTGATGAATTTAAGTAATCGAGTAAACAAATTTTCCTAATCTTTCTGTTCAAGCGCCATCTAC | 0.624 |
| GATGATTGTTCTCCCAGCTGATGAATTTGGGTAATCGAGTAAACAAATTTTCCTAATCTTTCTGTTCAAGCGCCATCTAC | 0.706 |
| GATGATTGTTCTCCCAGCTGATGAATTTTACGTCTCGAGTAAACAAATTTTCCTAATCTTTCTGTTCAAGCGCCATCTAC | 0.465 |
| GATGATTGTTCTCCCAGCTGATGAATTTCCCCTATCGAGTAAACAAATTTTCCTAATCTTTCTGTTCAAGCGCCATCTAC | 0.274 |
| GATGATTGTTCTCCCAGCTGATGAATTACAAGGATCGAGTAAACAAATTTTCCTAATCTTTCTGTTCAAGCGCCATCTAC | 0.29 |
| GATGATTGTTCTCCCAGCTGATGAATTCATCTTGTCGAGTAAACAAATTTTCCTAATCTTTCTGTTCAAGCGCCATCTAC | 0.398 |
| GATGATTGTTCTCCCAGCTGATGAATTTTCTGACTCGAGTAAACAAATTTTCCTAATCTTTCTGTTCAAGCGCCATCTAC | 0.236 |
| GATGATTGTTCTCCCAGCTGATGAATTCTCACAATCGAGTAAACAAATTTTCCTAATCTTTCTGTTCAAGCGCCATCTAC | 0.373 |
| GATGATTGTTCTCCCAGCTGATGAATTCTTCTACTCGAGTAAACAAATTTTCCTAATCTTTCTGTTCAAGCGCCATCTAC | 0.277 |
| GATGATTGTTCTCCCAGCTGATGAATTTTGGATATCGAGTAAACAAATTTTCCTAATCTTTCTGTTCAAGCGCCATCTAC | 0.75 |
| GATGATTGTTCTCCCAGCTGATGAATTCTAGAGGTCGAGTAAACAAATTTTCCTAATCTTTCTGTTCAAGCGCCATCTAC | 0.252 |
| GATGATTGTTCTCCCAGCTGATGAATTAACTTCATCGAGTAAACAAATTTTCCTAATCTTTCTGTTCAAGCGCCATCTAC | 0.326 |
| GATGATTGTTCTCCCAGCTGATGAATTACGATTGTCGAGTAAACAAATTTTCCTAATCTTTCTGTTCAAGCGCCATCTAC | 2.08 |
| GATGATTGTTCTCCCAGCTGATGAATTGTCGGGCTCGAGTAAACAAATTTTCCTAATCTTTCTGTTCAAGCGCCATCTAC | 0.296 |
| GATGATTGTTCTCCCAGCTGATGAATTGCCAGTATCGAGTAAACAAATTTTCCTAATCTTTCTGTTCAAGCGCCATCTAC | 0.761 |
| GATGATTGTTCTCCCAGCTGATGAATTCTTCGGTTCGAGTAAACAAATTTTCCTAATCTTTCTGTTCAAGCGCCATCTAC | 0.242 |
| GATGATTGTTCTCCCAGCTGATGAATTGTATACGTCGAGTAAACAAATTTTCCTAATCTTTCTGTTCAAGCGCCATCTAC | 4.38 |
| GATGATTGTTCTCCCAGCTGATGAATTCCAATACTCGAGTAAACAAATTTTCCTAATCTTTCTGTTCAAGCGCCATCTAC | 0.519 |
| GATGATTGTTCTCCCAGCTGATGAATTTGCGGACTCGAGTAAACAAATTTTCCTAATCTTTCTGTTCAAGCGCCATCTAC | 1 |
| GATGATTGTTCTCCCAGCTGATGAATTGTCCCCATCGAGTAAACAAATTTTCCTAATCTTTCTGTTCAAGCGCCATCTAC | 0.395 |

| Sequence | binding signal (RPM ratio (pull-down/input)) |
| --- | --- |
| GATGATTGTTCTCCCAGCTGATGAATTAAATCCCTCGAGTAAACAAATTTTCCTAATCTTTCTGTTCAAGCGCCATCTAC | 0.255 |
| GATGATTGTTCTCCCAGCTGATGAATTCAGAGTATCGAGTAAACAAATTTTCCTAATCTTTCTGTTCAAGCGCCATCTAC | 0.506 |
| GATGATTGTTCTCCCAGCTGATGAATTGATAGGGTCGAGTAAACAAATTTTCCTAATCTTTCTGTTCAAGCGCCATCTAC | 0.448 |
| GATGATTGTTCTCCCAGCTGATGAATTTTAGCCGTCGAGTAAACAAATTTTCCTAATCTTTCTGTTCAAGCGCCATCTAC | 0.479 |
| GATGATTGTTCTCCCAGCTGATGAATTCGACGACTCGAGTAAACAAATTTTCCTAATCTTTCTGTTCAAGCGCCATCTAC | 0.367 |
| GATGATTGTTCTCCCAGCTGATGAATTTAGACTCTCGAGTAAACAAATTTTCCTAATCTTTCTGTTCAAGCGCCATCTAC | 2.16 |
| GATGATTGTTCTCCCAGCTGATGAATTCGCACACTCGAGTAAACAAATTTTCCTAATCTTTCTGTTCAAGCGCCATCTAC | 0.484 |
| GATGATTGTTCTCCCAGCTGATGAATTCGATGTGTCGAGTAAACAAATTTTCCTAATCTTTCTGTTCAAGCGCCATCTAC | 3.69 |
| GATGATTGTTCTCCCAGCTGATGAATTCGCACCCTCGAGTAAACAAATTTTCCTAATCTTTCTGTTCAAGCGCCATCTAC | 0.48 |
| GATGATTGTTCTCCCAGCTGATGAATTCGAGATATCGAGTAAACAAATTTTCCTAATCTTTCTGTTCAAGCGCCATCTAC | 0.404 |
| GATGATTGTTCTCCCAGCTGATGAATTGTAGTATTCGAGTAAACAAATTTTCCTAATCTTTCTGTTCAAGCGCCATCTAC | 2.06 |
| GATGATTGTTCTCCCAGCTGATGAATTAGGCGACTCGAGTAAACAAATTTTCCTAATCTTTCTGTTCAAGCGCCATCTAC | 1.56 |
| GATGATTGTTCTCCCAGCTGATGAATTGCGGGTATCGAGTAAACAAATTTTCCTAATCTTTCTGTTCAAGCGCCATCTAC | 1.18 |
| GATGATTGTTCTCCCAGCTGATGAATTCGCTGCTTCGAGTAAACAAATTTTCCTAATCTTTCTGTTCAAGCGCCATCTAC | 0.563 |
| GATGATTGTTCTCCCAGCTGATGAATTCACGTACTCGAGTAAACAAATTTTCCTAATCTTTCTGTTCAAGCGCCATCTAC | 0.409 |
| GATGATTGTTCTCCCAGCTGATGAATTTCTCACTTCGAGTAAACAAATTTTCCTAATCTTTCTGTTCAAGCGCCATCTAC | 0.293 |
| GATGATTGTTCTCCCAGCTGATGAATTTCTGGCGTCGAGTAAACAAATTTTCCTAATCTTTCTGTTCAAGCGCCATCTAC | 0.366 |
| GATGATTGTTCTCCCAGCTGATGAATTTCCTAAGTCGAGTAAACAAATTTTCCTAATCTTTCTGTTCAAGCGCCATCTAC | 0.192 |
| GATGATTGTTCTCCCAGCTGATGAATTTGACAGATCGAGTAAACAAATTTTCCTAATCTTTCTGTTCAAGCGCCATCTAC | 0.211 |
| GATGATTGTTCTCCCAGCTGATGAATTCAGGCGCTCGAGTAAACAAATTTTCCTAATCTTTCTGTTCAAGCGCCATCTAC | 0.482 |
| GATGATTGTTCTCCCAGCTGATGAATTACAAGTTTCGAGTAAACAAATTTTCCTAATCTTTCTGTTCAAGCGCCATCTAC | 0.529 |
